Reference: ChEMBL document CHEMBL5291721, “A preclinical secondary pharmacology resource illuminates target-adverse drug reaction associations of marketed drugs” (Nat Commun, 2023)
Blank lines part the entries; values can stand above or below the compound they belong to.

What was measured:
[1] = biological target: Equilibrative nucleoside transporter 1 (Homo sapiens, UniProt Q99808)
[2] = biological target: 5-hydroxytryptamine receptor 1A (Homo sapiens, UniProt P08908)
[3] = biological target: Sodium channel protein type 5 subunit alpha (Homo sapiens, UniProt Q14524); type: functional, cell-based
D(3) dopamine receptor = D(3) dopamine receptor (Homo sapiens, UniProt P35462)
[4] = biological target: Voltage-gated inwardly rectifying potassium channel KCNH2 (Homo sapiens, UniProt Q12809); type: functional
[5] = biological target: Sodium-dependent dopamine transporter (Homo sapiens, UniProt Q01959)
[6] = biological target: T1, Alpha-1A adrenergic receptor (Homo sapiens, UniProt P35348); type: functional, cell-based
[7] = biological target: T1, Alpha-1A adrenergic receptor; type: functional, cell-based; remark: listed apart in the source
Acetylcholinesterase = Acetylcholinesterase (Homo sapiens, UniProt P22303); type: functional
Progesterone receptor = Progesterone receptor (Homo sapiens, UniProt P06401)
[8] = biological target: Sodium-dependent noradrenaline transporter (Homo sapiens, UniProt P23975)
Thromboxane A2 receptor [9] = biological target: T2, Thromboxane A2 receptor (Homo sapiens, UniProt P21731); type: functional, cell-based
T2 sequence (P21731 whole entry): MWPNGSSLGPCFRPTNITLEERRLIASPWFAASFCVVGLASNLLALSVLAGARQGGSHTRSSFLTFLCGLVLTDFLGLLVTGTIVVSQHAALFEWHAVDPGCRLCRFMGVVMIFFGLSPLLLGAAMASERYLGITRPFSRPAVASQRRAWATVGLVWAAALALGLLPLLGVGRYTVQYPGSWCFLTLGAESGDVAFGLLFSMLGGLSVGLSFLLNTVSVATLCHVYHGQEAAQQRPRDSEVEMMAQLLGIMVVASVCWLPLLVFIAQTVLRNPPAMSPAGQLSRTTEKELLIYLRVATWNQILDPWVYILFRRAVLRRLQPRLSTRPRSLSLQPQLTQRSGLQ

Bile salt export pump = Bile salt export pump (Homo sapiens, UniProt O95342); type: functional
D(1A) dopamine receptor = D(1A) dopamine receptor (Homo sapiens, UniProt P21728)
Estrogen receptor = Estrogen receptor (Homo sapiens, UniProt P03372)
Histamine H3 receptor = Histamine H3 receptor (Homo sapiens, UniProt Q9Y5N1)
[10] = biological target: Synaptic vesicular amine transporter (Rattus norvegicus, UniProt Q01827); type: functional
[11] = biological target: Voltage-dependent L-type calcium channel subunit alpha-1C (Homo sapiens, UniProt Q13936); type: functional, cell-based
[12] = biological target: Muscarinic acetylcholine receptor M2 (Homo sapiens, UniProt P08172)
Thromboxane A2 receptor [13] = biological target: T2, Thromboxane A2 receptor; type: functional, cell-based; remark: listed apart in the source
[14] = biological target: 3',5'-cyclic-AMP phosphodiesterase 4A (Homo sapiens, UniProt P27815); type: functional
[15] = biological target: Alpha-2A adrenergic receptor (Homo sapiens, UniProt P08913)
Adenosine receptor A3 [16] = biological target: T3, Adenosine receptor A3 (Homo sapiens, UniProt P0DMS8)
Melanocortin receptor 4 = Melanocortin receptor 4 (Homo sapiens, UniProt P32245)
Adenosine receptor A3 [17] = biological target: T3, Adenosine receptor A3; remark: listed apart in the source
Thromboxane A2 receptor [18] = biological target: T2, Thromboxane A2 receptor
Glucocorticoid receptor = Glucocorticoid receptor (Homo sapiens, UniProt P04150)
[19] = biological target: Type-1 angiotensin II receptor (Homo sapiens, UniProt P30556)
Further: assay procedure not described here.

Voltage-gated inwardly rectifying potassium channel KCNH2, sequence (Q12809 whole entry): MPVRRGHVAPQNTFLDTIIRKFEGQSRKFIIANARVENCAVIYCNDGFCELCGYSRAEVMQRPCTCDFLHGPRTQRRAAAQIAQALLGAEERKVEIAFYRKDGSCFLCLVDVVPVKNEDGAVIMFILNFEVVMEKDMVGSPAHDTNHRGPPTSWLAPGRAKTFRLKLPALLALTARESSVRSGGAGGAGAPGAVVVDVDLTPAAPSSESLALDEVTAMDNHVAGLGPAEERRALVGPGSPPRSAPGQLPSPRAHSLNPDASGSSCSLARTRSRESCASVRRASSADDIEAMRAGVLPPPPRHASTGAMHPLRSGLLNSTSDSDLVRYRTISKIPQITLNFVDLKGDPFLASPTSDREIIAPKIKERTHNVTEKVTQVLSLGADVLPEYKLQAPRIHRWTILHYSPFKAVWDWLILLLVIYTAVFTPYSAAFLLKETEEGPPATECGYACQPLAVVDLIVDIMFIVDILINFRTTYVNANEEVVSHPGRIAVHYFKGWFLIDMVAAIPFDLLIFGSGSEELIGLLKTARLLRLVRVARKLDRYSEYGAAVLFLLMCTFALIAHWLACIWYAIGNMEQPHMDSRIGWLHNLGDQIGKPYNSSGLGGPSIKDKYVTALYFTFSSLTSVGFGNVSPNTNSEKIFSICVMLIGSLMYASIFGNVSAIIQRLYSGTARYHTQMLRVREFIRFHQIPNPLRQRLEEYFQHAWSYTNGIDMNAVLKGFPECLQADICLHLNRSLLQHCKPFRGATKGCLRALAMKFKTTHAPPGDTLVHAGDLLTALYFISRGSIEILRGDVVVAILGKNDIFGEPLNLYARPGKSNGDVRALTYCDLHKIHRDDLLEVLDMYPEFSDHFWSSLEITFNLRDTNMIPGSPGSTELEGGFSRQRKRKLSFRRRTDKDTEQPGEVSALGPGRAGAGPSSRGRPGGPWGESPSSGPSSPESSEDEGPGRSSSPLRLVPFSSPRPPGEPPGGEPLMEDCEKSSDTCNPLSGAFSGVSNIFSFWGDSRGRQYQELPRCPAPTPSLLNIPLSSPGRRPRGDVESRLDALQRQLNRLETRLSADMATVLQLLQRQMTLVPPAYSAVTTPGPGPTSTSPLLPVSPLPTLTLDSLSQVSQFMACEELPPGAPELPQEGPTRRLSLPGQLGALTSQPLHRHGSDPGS
T1 sequence (P35348 whole entry): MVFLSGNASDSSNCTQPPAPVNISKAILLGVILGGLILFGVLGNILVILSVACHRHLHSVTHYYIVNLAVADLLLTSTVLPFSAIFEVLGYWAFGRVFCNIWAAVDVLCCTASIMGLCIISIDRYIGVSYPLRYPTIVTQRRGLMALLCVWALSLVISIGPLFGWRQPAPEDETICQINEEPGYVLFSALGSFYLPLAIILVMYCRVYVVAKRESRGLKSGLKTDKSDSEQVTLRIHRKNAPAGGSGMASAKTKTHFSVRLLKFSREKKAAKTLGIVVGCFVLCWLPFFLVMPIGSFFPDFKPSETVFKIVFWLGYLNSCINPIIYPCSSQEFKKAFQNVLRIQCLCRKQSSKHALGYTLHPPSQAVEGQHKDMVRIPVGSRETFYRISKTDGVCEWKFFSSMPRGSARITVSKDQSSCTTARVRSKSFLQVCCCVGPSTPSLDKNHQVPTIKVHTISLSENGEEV
T3 sequence (P0DMS8 whole entry): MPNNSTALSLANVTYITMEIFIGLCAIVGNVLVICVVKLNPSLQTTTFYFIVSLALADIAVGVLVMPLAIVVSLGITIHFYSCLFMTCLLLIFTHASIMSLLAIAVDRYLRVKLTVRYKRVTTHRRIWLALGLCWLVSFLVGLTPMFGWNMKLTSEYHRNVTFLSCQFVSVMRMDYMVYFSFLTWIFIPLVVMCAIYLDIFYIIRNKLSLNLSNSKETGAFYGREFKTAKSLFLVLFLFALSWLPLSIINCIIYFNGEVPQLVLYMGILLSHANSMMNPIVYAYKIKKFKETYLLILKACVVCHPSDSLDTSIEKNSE
Sodium channel protein type 5 subunit alpha, sequence (Q14524 whole entry): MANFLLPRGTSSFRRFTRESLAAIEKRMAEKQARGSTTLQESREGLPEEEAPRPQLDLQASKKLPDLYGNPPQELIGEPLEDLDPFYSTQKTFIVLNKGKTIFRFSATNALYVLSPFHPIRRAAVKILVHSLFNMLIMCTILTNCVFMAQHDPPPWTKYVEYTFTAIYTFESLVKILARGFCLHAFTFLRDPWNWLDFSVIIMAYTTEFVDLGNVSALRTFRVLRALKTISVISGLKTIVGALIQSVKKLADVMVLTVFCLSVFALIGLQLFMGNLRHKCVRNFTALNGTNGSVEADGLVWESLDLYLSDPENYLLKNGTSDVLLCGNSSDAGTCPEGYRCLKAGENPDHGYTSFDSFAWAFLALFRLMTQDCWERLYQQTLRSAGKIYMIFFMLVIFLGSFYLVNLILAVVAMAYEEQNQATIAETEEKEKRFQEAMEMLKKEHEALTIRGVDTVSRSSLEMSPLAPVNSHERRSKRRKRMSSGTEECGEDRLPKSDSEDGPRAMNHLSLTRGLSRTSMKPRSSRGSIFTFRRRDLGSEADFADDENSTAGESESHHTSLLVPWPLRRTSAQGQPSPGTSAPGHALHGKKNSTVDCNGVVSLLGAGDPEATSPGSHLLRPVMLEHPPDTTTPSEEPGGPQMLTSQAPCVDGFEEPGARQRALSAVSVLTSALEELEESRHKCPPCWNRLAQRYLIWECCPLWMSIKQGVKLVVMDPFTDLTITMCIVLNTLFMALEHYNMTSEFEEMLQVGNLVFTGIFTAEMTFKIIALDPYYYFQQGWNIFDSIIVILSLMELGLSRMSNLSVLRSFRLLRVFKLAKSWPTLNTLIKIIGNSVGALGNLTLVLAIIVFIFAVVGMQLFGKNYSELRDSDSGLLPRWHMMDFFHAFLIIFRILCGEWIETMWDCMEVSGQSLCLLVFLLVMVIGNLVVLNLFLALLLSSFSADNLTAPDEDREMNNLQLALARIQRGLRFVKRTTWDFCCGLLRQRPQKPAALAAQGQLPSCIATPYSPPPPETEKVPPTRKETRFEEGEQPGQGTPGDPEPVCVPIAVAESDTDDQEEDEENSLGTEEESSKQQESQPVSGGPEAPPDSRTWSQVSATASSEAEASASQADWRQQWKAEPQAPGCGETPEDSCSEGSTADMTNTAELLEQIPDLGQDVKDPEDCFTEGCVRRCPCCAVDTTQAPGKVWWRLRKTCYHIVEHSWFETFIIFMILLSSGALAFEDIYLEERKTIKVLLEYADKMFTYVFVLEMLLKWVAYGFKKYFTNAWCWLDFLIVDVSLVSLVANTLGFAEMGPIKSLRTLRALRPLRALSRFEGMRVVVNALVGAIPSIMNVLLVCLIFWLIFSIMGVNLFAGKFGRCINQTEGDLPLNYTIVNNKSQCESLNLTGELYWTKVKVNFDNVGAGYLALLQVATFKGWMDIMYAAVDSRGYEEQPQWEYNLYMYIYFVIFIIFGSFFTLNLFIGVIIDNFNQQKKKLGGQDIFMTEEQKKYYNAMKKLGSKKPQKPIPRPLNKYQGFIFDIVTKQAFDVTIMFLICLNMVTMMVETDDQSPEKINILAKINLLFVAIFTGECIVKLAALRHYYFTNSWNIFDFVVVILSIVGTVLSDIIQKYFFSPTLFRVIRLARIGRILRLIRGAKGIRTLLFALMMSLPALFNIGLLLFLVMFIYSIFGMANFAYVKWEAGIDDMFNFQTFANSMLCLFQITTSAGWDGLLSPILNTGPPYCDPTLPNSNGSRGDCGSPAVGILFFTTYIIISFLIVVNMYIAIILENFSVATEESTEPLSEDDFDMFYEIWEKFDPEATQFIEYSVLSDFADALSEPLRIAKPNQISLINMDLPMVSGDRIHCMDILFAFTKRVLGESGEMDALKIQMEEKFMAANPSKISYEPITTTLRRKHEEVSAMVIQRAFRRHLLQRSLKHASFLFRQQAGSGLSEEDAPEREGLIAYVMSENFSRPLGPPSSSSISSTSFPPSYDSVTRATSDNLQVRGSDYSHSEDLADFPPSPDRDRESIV
Equilibrative nucleoside transporter 1, sequence (Q99808 whole entry): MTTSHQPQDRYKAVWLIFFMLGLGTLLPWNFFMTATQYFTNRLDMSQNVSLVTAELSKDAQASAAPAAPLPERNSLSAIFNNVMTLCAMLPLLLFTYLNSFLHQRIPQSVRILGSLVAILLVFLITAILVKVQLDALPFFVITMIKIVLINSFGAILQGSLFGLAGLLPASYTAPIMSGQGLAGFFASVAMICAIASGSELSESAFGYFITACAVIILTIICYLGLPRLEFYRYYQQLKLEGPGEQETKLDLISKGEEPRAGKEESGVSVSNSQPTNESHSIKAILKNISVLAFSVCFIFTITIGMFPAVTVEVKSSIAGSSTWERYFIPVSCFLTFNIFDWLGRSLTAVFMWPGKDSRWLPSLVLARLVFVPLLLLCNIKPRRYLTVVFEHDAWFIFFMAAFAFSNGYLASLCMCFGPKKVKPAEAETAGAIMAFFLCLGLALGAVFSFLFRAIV
5-hydroxytryptamine receptor 1A, sequence (P08908 whole entry): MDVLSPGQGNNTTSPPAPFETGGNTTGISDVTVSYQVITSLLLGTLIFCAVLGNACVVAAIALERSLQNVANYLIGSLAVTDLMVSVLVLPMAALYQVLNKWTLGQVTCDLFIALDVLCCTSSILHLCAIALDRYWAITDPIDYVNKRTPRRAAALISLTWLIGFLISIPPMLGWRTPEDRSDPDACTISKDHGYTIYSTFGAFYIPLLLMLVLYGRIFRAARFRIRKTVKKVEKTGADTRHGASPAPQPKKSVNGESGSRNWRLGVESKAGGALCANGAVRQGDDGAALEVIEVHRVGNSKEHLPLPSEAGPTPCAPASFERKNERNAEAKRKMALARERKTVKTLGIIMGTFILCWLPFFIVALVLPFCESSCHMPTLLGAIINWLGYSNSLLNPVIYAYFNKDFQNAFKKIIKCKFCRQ

AC50 [1]: 38.5 µM
Compound: CN1[C@@H]2CC[C@H]1C[C@@H](OC(c1ccccc1)c1ccccc1)C2 [BENZTROPINE]

Compound: CCCCCCCCCCCCCCCC[n+]1ccccc1
AC50 [2]: 9.87 µM | AC50 [3]: 35.9 µM | AC50 (D(3) dopamine receptor): 0.546 µM | AC50 [4]: 1.3 µM | AC50 [5]: 2.4 µM | AC50 [6]: 6.43 µM | AC50 [7]: 10.5 µM | AC50 (Acetylcholinesterase): 4.68 µM | AC50 (Progesterone receptor): 4.54 µM | AC50 [8]: 2.31 µM | AC50 (Thromboxane A2 receptor [9]): 3.36 µM | AC50 (Bile salt export pump): 59 µM | AC50 (D(1A) dopamine receptor): 4.84 µM | AC50 (Estrogen receptor): 18 µM | AC50 (Histamine H3 receptor): 13 µM | AC50 [10]: 0.73 µM | AC50 [11]: 50 µM | AC50 [12]: 0.827 µM | AC50 (Thromboxane A2 receptor [13]): > 10 µM | AC50 [14]: 12.5 µM | AC50 [15]: 6.09 µM | AC50 (Adenosine receptor A3 [16]): 3.26 µM

AC50 (Melanocortin receptor 4): 30.1 µM | AC50 (Adenosine receptor A3 [17]): 3.17 µM | AC50 (Thromboxane A2 receptor [18]): 15.5 µM | AC50 (Glucocorticoid receptor): 11.3 µM | AC50 [19]: 28.1 µM
Compound: Clc1ccccc1C(c1ccccc1)(c1ccccc1)n1ccnc1 [CLOTRIMAZOLE]
AC50 [4]: 5.59 µM
